Measurements as given in PubChem BioAssay AID463173 (ICCB-Longwood Screening Facility, Harvard Medical School, 2010).
Out of some 52,000 compounds screened, about 4,300 (8.3%) were called active. No stated cut-off is given here; in the data, active means survival mostly below about 52% (no sharp cut-off); inactive means mostly above about 56%. The list shows a part of the results.

Test system: DeltatarO mutant
Assay: S. aureus survival, RN4220 and DeltatarO strains – OD600, teichoic acid synthesis inhibitors, primary screen (AID 463173)
Conditions: S. aureus RN4220 wild type/DeltatarO growth, OD600, 18 h, active compounds read low, screened at 18.75 µg/mL (by protocol)

Structure (SMILES)	survival
COCC(C)NCc1ccccc1C (centres undefined)	inactive: 92%
CCN(Cc1ccccc1)C(=O)C(CC(C)C)NS(=O)(=O)c1ccc2c(c1)CCN2C(C)=O (centres undefined)	inactive: 84%
O=C(c1ccccc1)N1CCCCC1CCN1CCCCC1 (centres undefined)	inactive: 70%
CN(C)c1ccc(Cl)nn1	inactive: 103%
Cc1cccc(N2CCN(C(=O)c3nn(C)c4c3CS(=O)(=O)c3ccccc3-4)CC2C)c1 (centres undefined)	inactive: 71%
COc1ccccc1CNC(=O)c1c(O)nc2cc(C)ccn2c1=O	inactive: 87%
Cc1nc2ccc(S(=O)(=O)NC(C(=O)NCc3ccc(Cl)cc3)C(C)C)cc2s1 (centres undefined)	inactive: 118%
COc1cc2c(-c3ccccc3Cl)nc3c(c(C)nn3-c3ccccc3)c2cc1OC	inactive: 57%
Cc1cccc(C(=O)Nc2ccccc2C(=O)OCc2cc(=O)n3nc(C4CC4)sc3n2)c1	inactive: 88%
CCOC(=O)c1c(-c2ccc(OC)c(OC)c2)csc1NC(=O)c1ccc(F)cc1	inactive: 77%
O=C(C1CCN(c2nc3ccccc3[nH]2)CC1)N1CCN(c2cccc(Cl)c2)CC1	active: 8%
COc1cccc(N2C(=O)CSC23C(=O)N(CC(=O)NCc2ccc(C)cc2)c2ccccc23)c1 (centres undefined)	inactive: 89%
CSC1=NC2(CCN(C(=O)NC3CCCCC3)CC2)N=C1c1ccc(C(C)(C)C)cc1	inactive: 67%
Cc1cc(C)c2oc(C(=O)Nc3c(C(=O)Nc4ccccc4)oc4ccccc34)cc(=O)c2c1	active: 51%
CCCCn1cc(S(=O)(=O)c2ccc(Cl)cc2)c(=O)c2cc(F)c(N3CCCCC3)cc21	inactive: 82%
Cc1ccc(OCC(=O)Nc2ccc(S(=O)(=O)N(Cc3ccccc3)c3ccccc3)cc2)cc1	inactive: 72%
Cn1c(SCc2ccc(F)cc2)nc2ccc(C(=O)NCc3ccccc3)cc21	inactive: 49%
O=C(CSc1oc(-c2ccco2)nc1S(=O)(=O)c1ccccc1)c1ccc(Cl)cc1	inactive: 61%
CCOc1cccc(C(=O)Nc2ccc(NC(=O)c3ccc(Br)cc3)cc2)c1	inactive: 172%
CCOC(=O)c1ccc(NC(=O)CC2C(=O)N(c3ccccc3)C(=O)N2C2CCCCC2)cc1 (centres undefined)	inactive: 67%
O=C(CSc1nnc(-c2ccccc2)o1)Oc1ccc(Br)cc1	inactive: 76%
CCOC(=O)c1oc2ccc(S(=O)(=O)n3nc(-c4cc(OCC)c(OCC)c(OCC)c4)cc3N)cc2c1C	inactive: 65%
CCN(c1ccc(C)cc1C)S(=O)(=O)c1nnc(NC(=O)c2ccccc2OC)s1	inactive: 55%

Structure (SMILES)	survival
COc1ccc2nc(Cl)c(CNC3CCCC3)cc2c1	inactive: 99%
COc1cccc(CNCCSc2nnnn2C)c1OCc1ccc(Cl)cc1	inactive: 62%
CCCN(CCC)CCCNC(=O)c1cn(CC)c2ccc(S(=O)(=O)N3CCc4ccccc4C3)cc2c1=O	inactive: 91%
CCc1ccc(Cn2nnc(C(=O)Nc3ccc(C)cc3)c2N)cc1	inactive: 133%
CC(C)c1ccc(NC(=O)C2CCCN(S(=O)(=O)c3ccc4[nH]c(=O)ccc4c3)C2)cc1 (centres undefined)	inactive: 92%
COCCNC(=S)N1CCC(NC(C)=O)CC1	inactive: 83%
CCOC(=O)c1ccc2c(c1)N(CC(=O)Nc1ccc(CC)cc1)C(=O)c1ccccc1S2	inactive: 67%
Cc1ccc(Nc2c(-c3ccc(N4CCOCC4)cc3)nc3ncccn23)cc1C	inactive: 88%
COc1cc(NC(=O)Cn2cnc3sc(C)c(S(=O)(=O)N4CCN(C)CC4)c3c2=O)cc(OC)c1OC	inactive: 155%
Cn1c(=O)oc2cc(S(=O)(=O)N3CCCC(C(=O)N4CCN(c5cccc(Cl)c5)CC4)C3)ccc21 (centres undefined)	inactive: 62%
CC1=C(C(=O)OCC2CCCCC2)C(c2cccc(F)c2F)CC(=O)N1 (centres undefined)	inactive: 95%
COc1ccc(CNC(=O)CN(c2ccc(OC)cc2)S(=O)(=O)c2c(C)[nH]c(=O)[nH]c2=O)cc1	inactive: 81%
O=C(CC1(O)C(=O)N(Cc2ccccc2)c2ccc(Br)cc21)c1ccccc1 (centres undefined)	inactive: 99%
Cc1ccc(-n2c(-c3ccco3)nc3c(cnn3-c3ccc(C)cc3)c2=O)cc1	inactive: 81%
O=C(Cc1ccccc1F)N1CCC(c2nc3c(nnn3Cc3cccc(Cl)c3)c(=O)[nH]2)CC1	active: 44%
Cc1cc(C)cc(OCCn2c(CCNC(=O)C3CCCCC3)nc3ccccc32)c1	inactive: 92%
COc1cccc(/C=N/NC(=O)c2cccc(C)c2)c1O	active: 2%
CCc1ccc(N2CCn3c2nc2c3c(=O)n(CCCc3ccccc3)c(=O)n2C)cc1	inactive: 82%
CCCc1cnc2c(c1SCC(=O)Nc1cccc(C)c1C)c(=O)n(C)c(=O)n2C	inactive: 102%
CCOC(=O)c1ccc(NC(=O)c2c(NCc3cc(OC)c(OC)cc3OC)sc3c2CCCC3)cc1	inactive: 87%
COc1ccc(-n2cc(-c3ccccc3)c3c(NCCc4ccc(OC)c(OC)c4)ncnc32)cc1	inactive: 116%
CCN1CCN(c2cc3c(cc2F)c(=O)c(S(=O)(=O)c2cc(C)cc(C)c2)cn3CC)CC1	active: -1%
Cc1cccc(N2CCN(c3ncnc4onc(C)c34)CC2C)c1 (centres undefined)	inactive: 77%

Structure (SMILES)	survival
CCc1cccc(C)c1NC(=O)c1cn2c3c(ccc(Cl)c3c1=O)OC(C)C2 (centres undefined)	inactive: 122%
Cc1ccc(-c2nc3ncccc3o2)cc1NC(=O)c1ccc(-c2cccc(Cl)c2C)o1	inactive: 56%
Cc1nc(-c2cccc(F)c2)sc1CCNC(=O)C(=O)Nc1ccc2c(c1)OCO2	inactive: 90%
CCOc1ccc(S(=O)(=O)NCC(c2ccc(N(C)C)cc2)N2CCc3ccccc32)cc1 (centres undefined)	inactive: 49%
CCCCN(C)S(=O)(=O)c1cc(-c2cc(C)no2)ccc1C	inactive: 84%
O=C(CC12CC3CC(CC(C3)C1)C2)NCc1ccco1	inactive: 90%
COC(=O)CSc1ccc2nnc(CCNS(=O)(=O)c3ccccc3)n2n1	inactive: 118%
Cc1cc(-c2nc3ncccc3o2)ccc1NC(=O)c1ccc(Cl)cc1	inactive: 76%
COc1ccccc1OCCSc1nc(C)cc(C)n1	inactive: 89%
CCOc1ccc(NC(=O)c2c(NC(=O)c3ccccc3Br)sc3c2CCC(C)C3)cc1 (centres undefined)	inactive: 60%
CCOc1ccc(NC(=O)CC2C(=O)N(c3ccc(C)cc3)C(=O)N2Cc2ccc(OC)cc2)cc1 (centres undefined)	inactive: 68%
Clc1ccc(NC2CCCCC2)nn1	active: 66%
COc1ccc(OC)c(NC(=O)N(C)CCc2c(C)nn(C)c2C)c1	inactive: 83%
CCC(=O)N1CCc2cc(Br)cc(S(=O)(=O)N(CC)Cc3ccccc3)c21	inactive: 50%
NCCNC(=O)CCc1n[nH]c(=O)c2ccccc12	inactive: 94%
Nc1ncc2c(n1)CC(c1ccco1)CC2=O (centres undefined)	inactive: 80%
Cc1cccc(-c2nc3ccccc3n3c(-c4ccccc4)c4c(=O)n(C)c(=O)n(C)c4c23)c1	inactive: 122%
COC(=O)C1C(=O)C2=C(CC1C)Nc1ccccc1NC2c1ccc(O)c(OC)c1 (centres undefined)	inactive: 87%
O=C(Nc1ccc(F)c(Cl)c1)N1CCC(CN2CCc3ccccc3C2)CC1	inactive: 64%
CCN(C(=O)c1ccco1)c1nnc(Cn2nnc3ccccc32)s1	inactive: 91%
Cc1oc(-c2ccccc2F)nc1CSc1nnc(C)n2c1cc1occc12	inactive: 74%
CC(C)(C)OC(=O)N1CCC(c2c(C(=O)N3CCOCC3)cnn2-c2cccc(F)c2)CC1	inactive: 124%
Cc1ccc(C)c(NC(=O)Nc2cccc(-c3cn4cccnc4n3)c2)c1	inactive: 82%

Structure (SMILES)	survival
COc1ccc(-n2nnc(-c3nc(-c4cccs4)no3)c2N)cc1	inactive: 68%
CN1C(=O)C2C3c4ccccc4C(c4ccccc43)C2C1=O (centres undefined)	inactive: 92%
COC(=O)c1ccccc1-n1cc2c(c1-c1cccc(C)c1)c(=O)n(C)c(=O)n2C	inactive: 75%
O=C(Nc1ccc(C(=O)N2CCN(c3ccccc3)CC2)cc1)c1nsc2ccccc12	active: -1%
CCOC(=O)c1cnc2ccc(Cl)cc2c1Nc1ccc(N2CCOCC2)cc1	active: 0%
CCCN(CCC)CCNC(=O)C1CCN(c2nc3ccc(CC)cc3s2)CC1	active: 43%
O=C(CSc1nc2c(c(=O)[nH]1)CN(Cc1ccc3c(c1)OCO3)CC2)Nc1ccc(F)c(F)c1	inactive: 97%
CCC(C)NC(=O)CCc1c(C)nc2cc(-c3ccc(OC)cc3OC)nn2c1C (centres undefined)	inactive: 92%
Cc1cccc(CCNC(=O)C2CCN(c3nc4ccccc4nc3C(F)(F)F)CC2)c1	inactive: 64%
Cc1ccc(-n2ncc3c(NCC(C)C)ncnc32)c(C)c1	active: 37%
CCc1cccc(NC(=O)c2ccc(CNS(=O)(=O)c3ccc4c(c3)C(C)(C)C(=O)N4C)cc2)c1	inactive: 56%
COc1ccccc1-c1cc2nc(C)c(CCC(=O)Nc3cc(C)ccc3C)c(C)n2n1	inactive: 60%
O=C(Oc1ccnc2cc(Cl)ccc12)N1CCCCC1	inactive: 81%
CCc1ccc(NC(=O)Cn2cnc3sc(C)c(S(=O)(=O)N4CCN(c5ccccc5OC)CC4)c3c2=O)cc1	inactive: 118%
CC1CCN(C(=O)CSc2nc3cc4c(cc3cc2C#N)OCO4)CC1	inactive: 110%
Cc1[nH]c2ccccc2c1SCCNC(=O)c1ccccc1F	inactive: 53%
CCOc1ccc(CCNC(=O)c2cc3sc(CC)cc3n2C)cc1OCC	inactive: 55%
Cc1ccc(S(=O)(=O)N2CCC(n3c(C)nc4cccnc43)CC2)c(C)c1	inactive: 79%
Cc1ccc(S(=O)(=O)c2cn(Cc3ccc(F)cc3)c3cc(N4CCCC4)c(F)cc3c2=O)cc1	inactive: 94%
N#Cc1c(-c2ccc3c(c2)OCO3)cc(-c2ccc(F)cc2)nc1N	inactive: 81%
